Results from paper PMC5399170.
These are yes or no findings as the source states them, for the method shown. For part of these data: Binding seen in cells or lysates may run through a third protein. Some entries that bind do so weakly or less than the wild type. For part of these data: Tags and fused reporters may be left off the sequences shown. Values belong to the molecule of their own block, whether it stands above or below them.

Amino acid sequences for entries named in this document (tags omitted).
UniProt O95863: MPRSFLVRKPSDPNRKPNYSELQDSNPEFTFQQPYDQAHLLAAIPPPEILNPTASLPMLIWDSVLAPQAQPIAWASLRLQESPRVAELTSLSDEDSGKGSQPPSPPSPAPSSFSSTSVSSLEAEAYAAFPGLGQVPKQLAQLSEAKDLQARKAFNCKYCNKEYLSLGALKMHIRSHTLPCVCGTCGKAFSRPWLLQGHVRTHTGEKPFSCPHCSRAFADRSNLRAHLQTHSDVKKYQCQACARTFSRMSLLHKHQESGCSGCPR
UniProt Q13547: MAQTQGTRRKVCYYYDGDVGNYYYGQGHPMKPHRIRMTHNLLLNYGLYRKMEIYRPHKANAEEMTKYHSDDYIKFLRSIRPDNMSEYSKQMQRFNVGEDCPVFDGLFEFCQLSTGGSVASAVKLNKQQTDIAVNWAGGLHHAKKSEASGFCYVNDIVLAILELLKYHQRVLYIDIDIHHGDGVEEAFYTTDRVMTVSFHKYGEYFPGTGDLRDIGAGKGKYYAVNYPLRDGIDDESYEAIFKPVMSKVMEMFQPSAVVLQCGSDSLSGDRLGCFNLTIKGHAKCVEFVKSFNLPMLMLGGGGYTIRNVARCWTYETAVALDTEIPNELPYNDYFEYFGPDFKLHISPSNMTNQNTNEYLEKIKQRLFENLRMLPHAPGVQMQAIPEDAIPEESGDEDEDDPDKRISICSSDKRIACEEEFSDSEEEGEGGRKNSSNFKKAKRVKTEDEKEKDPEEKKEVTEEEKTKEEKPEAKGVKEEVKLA

What was measured:
[1] = target: T1, Flag-DACH1 (Dachshund homologue 1) (human) (UniProt Q9UI36); test: co-IP; MCF-7 cells cotransfected with Flag-DACH1 and GFP-SNAI1 or HA-SNAI2; 24 h after transfection immunoprecipitation with anti-Flag or anti-HA antibody, western blot
T1 sequence: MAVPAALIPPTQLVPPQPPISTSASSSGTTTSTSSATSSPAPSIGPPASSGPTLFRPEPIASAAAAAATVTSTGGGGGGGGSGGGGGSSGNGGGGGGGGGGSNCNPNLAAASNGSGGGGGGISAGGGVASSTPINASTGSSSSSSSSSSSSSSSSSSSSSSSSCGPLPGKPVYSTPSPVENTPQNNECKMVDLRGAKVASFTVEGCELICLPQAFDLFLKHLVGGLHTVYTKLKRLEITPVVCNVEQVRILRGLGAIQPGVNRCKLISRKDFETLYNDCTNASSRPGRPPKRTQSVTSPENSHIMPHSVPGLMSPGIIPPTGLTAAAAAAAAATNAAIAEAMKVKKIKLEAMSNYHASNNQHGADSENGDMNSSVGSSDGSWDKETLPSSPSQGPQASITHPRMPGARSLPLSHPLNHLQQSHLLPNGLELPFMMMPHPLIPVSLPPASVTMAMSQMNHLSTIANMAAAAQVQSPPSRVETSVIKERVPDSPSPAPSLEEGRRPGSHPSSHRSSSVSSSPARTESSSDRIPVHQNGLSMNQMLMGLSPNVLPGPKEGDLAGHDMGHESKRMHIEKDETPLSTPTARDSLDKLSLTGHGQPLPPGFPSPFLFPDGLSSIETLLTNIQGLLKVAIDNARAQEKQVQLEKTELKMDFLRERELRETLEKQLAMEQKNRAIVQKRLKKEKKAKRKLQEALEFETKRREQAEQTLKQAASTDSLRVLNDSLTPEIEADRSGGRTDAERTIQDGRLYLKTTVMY

[2] = target: GFP-SNAI1 (UniProt O95863); test: co-IP; MCF-7 cells cotransfected with Flag-DACH1, GFP-SNAI1 or Myc-HDAC1; effect of DACH1 overexpression
[3] = target: GST-SNAI1 fusion protein (UniProt O95863); test: pull-down; purified GST-SNAI1 (bait) immobilised on the Pierce Spin Column; DACH1 as prey from MCF-7 cell lysate; only the target purified
[4] = target: endogenous SNAI1 (human (endogenous in MCF-7)) (UniProt O95863); test: co-IP; endogenous proteins of MCF-7 cells; immunoprecipitation with anti-SNAI or anti-DACH1 antibody (anti-IgG control), western blot with anti-DACH1 or anti-SNAI antibody
[5] = target: T2, HA-SNAI2 (UniProt O43623); test: co-IP; MCF-7 cells cotransfected with Flag-DACH1 and GFP-SNAI1 or HA-SNAI2; 24 h after transfection immunoprecipitation with anti-Flag or anti-HA antibody, western blot
T2 sequence: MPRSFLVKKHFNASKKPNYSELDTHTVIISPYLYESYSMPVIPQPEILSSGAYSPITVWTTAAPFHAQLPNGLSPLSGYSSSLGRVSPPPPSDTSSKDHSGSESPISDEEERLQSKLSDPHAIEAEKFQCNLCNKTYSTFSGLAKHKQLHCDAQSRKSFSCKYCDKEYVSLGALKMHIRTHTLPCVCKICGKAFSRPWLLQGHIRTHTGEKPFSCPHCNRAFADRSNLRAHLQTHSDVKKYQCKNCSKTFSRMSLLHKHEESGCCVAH

[6] = target: pBIND-SNAI1 (UniProt O95863); test: two-hybrid; mammalian two-hybrid (Checkmate, Promega) in MCF-7 cells; pACT-DACH1 and pBIND-SNAI1; luciferase measured 48 h after transfection, normalized against β-galactosidase

binding [1]: binds
Molecule: GFP-SNAI1 (from UniProt O95863 1-264)

binding [2]: binds
Molecule: Myc-HDAC1 (from UniProt Q13547 1-482)

binding [3]: binds
binding [4]: binds
B1: endogenous DACH1 (protein, UniProt Q9UI36 1-758)
chain: MAVPAALIPPTQLVPPQPPISTSASSSGTTTSTSSATSSPAPSIGPPASSGPTLFRPEPIASAAAAAATVTSTGGGGGGGGSGGGGGSSGNGGGGGGGGGGSNCNPNLAAASNGSGGGGGGISAGGGVASSTPINASTGSSSSSSSSSSSSSSSSSSSSSSSSCGPLPGKPVYSTPSPVENTPQNNECKMVDLRGAKVASFTVEGCELICLPQAFDLFLKHLVGGLHTVYTKLKRLEITPVVCNVEQVRILRGLGAIQPGVNRCKLISRKDFETLYNDCTNASSRPGRPPKRTQSVTSPENSHIMPHSVPGLMSPGIIPPTGLTAAAAAAAAATNAAIAEAMKVKKIKLEAMSNYHASNNQHGADSENGDMNSSVGSSDGSWDKETLPSSPSQGPQASITHPRMPGARSLPLSHPLNHLQQSHLLPNGLELPFMMMPHPLIPVSLPPASVTMAMSQMNHLSTIANMAAAAQVQSPPSRVETSVIKERVPDSPSPAPSLEEGRRPGSHPSSHRSSSVSSSPARTESSSDRIPVHQNGLSMNQMLMGLSPNVLPGPKEGDLAGHDMGHESKRMHIEKDETPLSTPTARDSLDKLSLTGHGQPLPPGFPSPFLFPDGLSSIETLLTNIQGLLKVAIDNARAQEKQVQLEKTELKMDFLRERELRETLEKQLAMEQKNRAIVQKRLKKEKKAKRKLQEALEFETKRREQAEQTLKQAASTDSLRVLNDSLTPEIEADRSGGRTDAERTIQDGRLYLKTTVMY

binding [5]: no binding
B2: Flag-DACH1 (Dachshund homologue 1) (protein, UniProt Q9UI36 1-758)
chain: MAVPAALIPPTQLVPPQPPISTSASSSGTTTSTSSATSSPAPSIGPPASSGPTLFRPEPIASAAAAAATVTSTGGGGGGGGSGGGGGSSGNGGGGGGGGGGSNCNPNLAAASNGSGGGGGGISAGGGVASSTPINASTGSSSSSSSSSSSSSSSSSSSSSSSSCGPLPGKPVYSTPSPVENTPQNNECKMVDLRGAKVASFTVEGCELICLPQAFDLFLKHLVGGLHTVYTKLKRLEITPVVCNVEQVRILRGLGAIQPGVNRCKLISRKDFETLYNDCTNASSRPGRPPKRTQSVTSPENSHIMPHSVPGLMSPGIIPPTGLTAAAAAAAAATNAAIAEAMKVKKIKLEAMSNYHASNNQHGADSENGDMNSSVGSSDGSWDKETLPSSPSQGPQASITHPRMPGARSLPLSHPLNHLQQSHLLPNGLELPFMMMPHPLIPVSLPPASVTMAMSQMNHLSTIANMAAAAQVQSPPSRVETSVIKERVPDSPSPAPSLEEGRRPGSHPSSHRSSSVSSSPARTESSSDRIPVHQNGLSMNQMLMGLSPNVLPGPKEGDLAGHDMGHESKRMHIEKDETPLSTPTARDSLDKLSLTGHGQPLPPGFPSPFLFPDGLSSIETLLTNIQGLLKVAIDNARAQEKQVQLEKTELKMDFLRERELRETLEKQLAMEQKNRAIVQKRLKKEKKAKRKLQEALEFETKRREQAEQTLKQAASTDSLRVLNDSLTPEIEADRSGGRTDAERTIQDGRLYLKTTVMY

binding [6]: binds
B3: pACT-DACH1 (protein, UniProt Q9UI36 1-758)
chain: MAVPAALIPPTQLVPPQPPISTSASSSGTTTSTSSATSSPAPSIGPPASSGPTLFRPEPIASAAAAAATVTSTGGGGGGGGSGGGGGSSGNGGGGGGGGGGSNCNPNLAAASNGSGGGGGGISAGGGVASSTPINASTGSSSSSSSSSSSSSSSSSSSSSSSSCGPLPGKPVYSTPSPVENTPQNNECKMVDLRGAKVASFTVEGCELICLPQAFDLFLKHLVGGLHTVYTKLKRLEITPVVCNVEQVRILRGLGAIQPGVNRCKLISRKDFETLYNDCTNASSRPGRPPKRTQSVTSPENSHIMPHSVPGLMSPGIIPPTGLTAAAAAAAAATNAAIAEAMKVKKIKLEAMSNYHASNNQHGADSENGDMNSSVGSSDGSWDKETLPSSPSQGPQASITHPRMPGARSLPLSHPLNHLQQSHLLPNGLELPFMMMPHPLIPVSLPPASVTMAMSQMNHLSTIANMAAAAQVQSPPSRVETSVIKERVPDSPSPAPSLEEGRRPGSHPSSHRSSSVSSSPARTESSSDRIPVHQNGLSMNQMLMGLSPNVLPGPKEGDLAGHDMGHESKRMHIEKDETPLSTPTARDSLDKLSLTGHGQPLPPGFPSPFLFPDGLSSIETLLTNIQGLLKVAIDNARAQEKQVQLEKTELKMDFLRERELRETLEKQLAMEQKNRAIVQKRLKKEKKAKRKLQEALEFETKRREQAEQTLKQAASTDSLRVLNDSLTPEIEADRSGGRTDAERTIQDGRLYLKTTVMY
